In article PMC5515408:
Some of the results follow. At the low end of the ranking the order means little.

target: MAX:MAX (p21) (UniProt P61244-2); experiment: protein-binding microarray (anti-MAX antibody); settings: PBM: 15 mM Tris-HCl pH 7.5, 100 mM KCl, 0.075% NP40, 7.5 mM beta-mercaptoethanol, 375 ng/ul BSA, 8 ng/ul poly(dA-dT):(dA-dT), 550 ng complex, 60 min, room …; high values mean tight binding; double strand, one strand shown; sequences stand for … in CCGGC…TTAATAGCTAAGATTACTATATCGACG

Sequence	binding signal (log2 normalized fluorescence)
TGAGCGCAGGTA	-0.34
TGAGATGGGGTA	-0.154
TGATTCAAAGTA	-1.13
TGAAACCCCGTA	-0.43
TGATGCAACGTA	0.0168
TGACAACAAGTA	-0.00212
TGAGGAAACGTA	-0.713
GGACACGGGGTA	3.01
TGTCACCTGGTA	2.13
TGAGCCTTTGTA	-1.52
TGAAGACGTGTA	0.674
TGAACGCTGGTA	0.233
TGAGGGACGGTA	-0.417
TGACACTCCGTA	-0.0103
TAATTCGTGGTA	0.431
TGAATCGCGGTA	-0.32
TGATCAGCTGTA	1.02
TGAATGACCGTA	0.107
TGACACGTATCA	1.42
TGAGTACTTGTA	-1.11
CCAAGGCGGAAC	0.277
TGATGAAGAGTA	-0.263
TGAGAGTTAGTA	-1.04
TGAATCCAGGTA	-0.902
TGAGTCGCCGTA	-1.16

Sequence	binding signal (log2 normalized fluorescence)
TGATTCCCGGTA	-0.853
TGACCTCATGTA	2.73
TGACCGTGGGTA	0.604
TGACGACTGGTA	-0.433
TGACGTGATGTA	1.63
TGATTCCCAGTA	-0.997
TGATCCAGTGTA	-0.696
TGACATCGCGTA	0.0881
TGATTTTCCGTA	-1.03
TGAGATGAAGTA	-0.933
TGAGTGTAAGTA	-0.22
TGAAACCTAGTA	-0.855
GGACACGTGGAG	3.2
TGAATTACGGTA	-0.663
TGATTACCTGTA	-0.642
TGAGACGTTGTA	-0.362
TGAGTCTCGGTA	-1.16
TGAGTTAGTGTA	-1.05
TGAAATATCGTA	-0.654
TGAAGATTCGTA	-1.01
TGATCGCTAGTA	-0.865
TGGCACTTTGTA	-0.541
TGATTAGGTGTA	-1.08
TGAGATTTTGTA	-1.47
TGATGGTAAGTA	0.345

Sequence	binding signal (log2 normalized fluorescence)
TGATTATCGGTA	-1.33
TGATTGCTTGTA	-0.593
TGATGGTCTGTA	0.348
TGATGGGACGTA	0.101
TGAGGTCCTGTA	-0.622
TGAGAAGCTGTA	-0.843
TAAGACGTGGTA	1.75
TGAATGCTCGTA	0.339
TGAAAGCCAGTA	-0.847
TGATATGGGGTA	0.0377
TGACGGTTGGTA	-0.29
TGAGCTCGAGTA	-0.568
TGAACCACGGTA	0.954
TGAGCGGTGGTA	-0.339
TGACTTCTAGTA	-1.1
TGACACGAAATA	0.577
TGAACGCCGGTA	-0.00954
TGACTAATGGTA	-0.355
TGAAGACTGGTA	-0.549
TGATACTGCGTA	-0.682
TGAATACCAGTA	-0.888
TGATCGTCCGTA	-0.779
TGAAGGCTGGTA	-0.432
TGATTTGGTGTA	-1.16
TGAGAACATGTA	0.942

Sequence	binding signal (log2 normalized fluorescence)
TGAAAGAGGGTA	-0.622
TGACACGTGATT	3.22
TGACTACCAGTA	-0.616
TGAACAGGGGTA	0.31
TGATAGCCCGTA	-1.08
TGACCCAGCGTA	-0.435
AAGGGTTTTCTA	-0.273
TGAACCGTGGTC	1.31
TGATTAGATGTA	-1.05
CTTACCACCCAG	0.89
TGACATAGAGTA	-0.379
TGACTATTAGTA	-0.887
TGAAACGTTGTA	0.655
TGATTGTTGGTA	-0.855
TCGGACGTGGTA	1.17
TGATAACGAGTA	-0.258
TGATGGCACGTA	1.08
TGAACCCCCGTA	-0.133
TGAACCACAGTA	-0.226
TGATACTGTGTA	-0.658
CCGCTTAATTTC	-1.02
TGAGGCCCGGTA	-1.01
TGATACGCCGTA	-0.497
TGACCGCGCGTA	1.24
TGACTTCCTGTA	-0.849

Sequence	binding signal (log2 normalized fluorescence)
TGACGATGCGTA	0.115
TGAATTCTAGTA	-0.709
TGAATAAAGGTA	-0.47
TTAAAAGTGGTA	-0.41
TTACACGTGATA	3.31
TGAAAACCGGTA	-0.585
TGAGAGCGCGTA	-0.456
TGACCCGGGGTA	0.0808
TGACGCGTGGTG	3.08
CCCCGTGGTTAC	2.98
TGACGTCAAGTA	-0.203
TGAGAGCCGGTA	-0.711
TGAGGGACAGTA	-0.217
TGAAGTGCCGTA	-0.25
TGACGCCCCGTA	-0.228
TGAATCGGCGTA	-0.762
TGAGGACCAGTA	-0.622
TGAGGCATGGTA	2.39
TGAGACATCGTA	-0.642
TGATGAGAAGTA	-0.622
TGAGGAATAGTA	-1.02
TGAGTTCGTGTA	-0.151
TGATTTTGGGTA	-1.36
TGAGAGCAAGTA	-0.426
TGAAGCCTTGTA	-0.759

Sequence	binding signal (log2 normalized fluorescence)
AAGTAGCGCACA	1.4
AGGGTGTACTGG	1.66
TGAGCATACGTA	0.19
TGAGCAGAGGTA	-0.746
TGACAAGGGGTA	0.333
TGACAAGCGGGA	-0.154
TGATAACCTGTA	-0.152
TGAAACTGCGTA	-0.521
TGAAATTATGTA	-1.08
TGAGAAGAAGTA	-1.09
TGATGGAGGGTA	-0.0145
TGACGTGGAGTA	1.1
TGATGTTTCGTA	-0.105
TGAATGCGTGTA	1.68
TGAGGTAAAGTA	-0.641
TGACCTAGAGTA	-1.04
TGACACGTTTCA	2.68
TGACCCAGAGTA	-0.816
TGAATCGGTGTA	-0.939
TGATCGCTTGTA	-0.757
TGATCTAGGGTA	-1.15
TGACTTATAGTA	-0.852
TGACACAAGGTA	1.62
TGACCTCTTGTA	-0.541
TGAAGTCCGGTA	-0.959

Sequence	binding signal (log2 normalized fluorescence)
TGAGAGTGCGTA	0.05
TGATGGGCGGTA	0.357
TGAGTTCATGTA	-0.156
TGACATCTCGTA	-0.176
TGATGAAGCGTA	-0.5
TCCTACGTGGTA	1.8
TGAGACTTTGTA	-0.891
TGAAGGACAGTA	-0.583
TGAATTACCGTA	-0.746
TGAGTCTGGGTA	-1.24
TGACATGGTGTA	1.41
TGAAACCGTGTA	0.451
TGACTGTTTGTA	-0.256
TGAGTGTGCGTA	0.941
TGAAACCTGGTA	0.073
TGGCAACTGGTA	-0.185
GGATACGTGGTA	1.37
TGACTTGTTGTA	-0.435
TGAAAAAAGGTA	-0.932
TTGCACTTGGTA	0.423
TGAAAAGCTGTA	-0.605
TGAGGCTCAGTA	-0.598
GGCCACGTGGTA	3.16
TGATGCGATGTA	-0.205
TGACGACCCGTA	-0.197

Sequence	binding signal (log2 normalized fluorescence)
TGATGAGGCGTA	-0.459
TGAAGAACGGTA	-0.55
TGAGGGGACGTA	0.311
TGATGGAAAGTA	-0.184
TGACATACTGTA	0.606
TGACCCACCGTA	-0.0369
TGACGGATGGTA	0.163
TGATCAGCGGTA	0.0982
TGACCCTTCGTA	-0.598
TGACACGTTATA	2.87
TGAGGGATAGTA	-0.743
TGATCTACAGTA	-1.13
TGACCCGTGGTC	2.7
TGAATTTTCGTA	-1.03
TGATACGTGGCA	1.26
TGAAAGGGGGTA	1.01
TGAACTAACGTA	-0.626
TGACCCCATGTA	2.12
TTCGTCCAAGGC	-1.14
TGATGCCTGGTA	0.158
CAATGTCTTAAC	0.0404
TGAGGCAAGGTA	0.0957
TGATTTGATGTA	-0.882
TGAAGGTGGGTA	0.192
TGAGCTTTGGTA	-1.42

Sequence	binding signal (log2 normalized fluorescence)
TGGCACACGGTT	1.59
TGAACCGCGGTA	-0.184
TGATGGTGCGTA	0.65
TGAAACAGAGTA	-0.664
TTCTTTATCACG	1.16
TGAATACTCGTA	-0.922
TGACCCTGTGTA	0.4
TGACGGAATGTA	-0.194
TGAGGGCCAGTA	-0.677
TCGGTCTTCCTC	-1.71
TGAGGGCATGTA	1.31
TGAATTGTGGTA	0.192
TGAACATACGTA	0.737
GCACACGTGGTA	3.29
TGACACGACGTA	0.957
TGAGTAATGGTA	-0.395
TATCACGTGGGA	3.05
TGAGGCCGTGTA	-0.276
TGAACTCCTGTA	0.0348
TGATTCCTGGTA	-0.681
TGATTTTAAGTA	-0.913
TGAAGAGTTGTA	-0.595
TGAGGGCCCGTA	-0.285
TGGGTCGTGGTA	0.33
TGACTTGTGGTA	0.859

Sequence	binding signal (log2 normalized fluorescence)
TGAGCAATAGTA	-0.757
TGATTGCTCGTA	-0.459
TGAAAACGAGTA	0.337
TGAGAGCTGGTA	-0.855
TGACCAACAGTA	-0.301
TGAGCCCTTGTA	-1.09
TGAAGCGATGTA	-0.278
TGAGCGAGAGTA	-0.652
TGAGACGGGGTA	-0.19
TGAGGGTGGGTA	0.835
TGATCGAATGTA	-0.592
CGACACGTGTTA	3.4
TGATTTTTTGTA	-1.53
TGAGCGTAGGTA	-0.692
TGAGTCCTGGTA	-1.17
TGACGCTCCGTA	-0.517
TGGCACCTGGTT	1.82
TGACAAACTGTA	-0.246
GCGCACGTGGTA	3.39
TGAGAGTCTGTA	-1.05
TGAAAAATTGTA	-1.16
TGACCCATTGTA	-0.0278
TGACGTCTTGTA	-0.677
TGACAGTAGGTA	-0.344
TGACTAGAAGTA	-0.842

Sequence	binding signal (log2 normalized fluorescence)
TGAGCTTATGTA	-0.493
TGACCGAGTGTA	-0.0504
TGATATTTCGTA	-1.21
TGAGGTACGGTA	-0.258
TGAAGGTCTGTA	-0.627
AGCTGGATACTC	1.39
TTACACGTGGTT	3.22
TGACGCGTTGTA	1.2
TGATGCCAAGTA	-0.383
TGATACGTAGTA	-0.967
TGAAAGTGAGTA	-0.479
TGAATTATAGTA	-1.12
TGATTGGAGGTA	-0.542
TGATTCTTGGTA	-1.32
TGAGTCAACGTA	-0.775
TGATAATGTGTA	0.335
TGAGGACTCGTA	-0.745
TGATGCACGGTA	0.928
TGACACGTGGAC	3.07
TGATGCGAGGTA	0.34
TGACGGGTTGTA	-0.204
TGACTATACGTA	-0.402
TGACACCTGGGA	1.79
TGCCACCTGGTA	2.96
GGACACGCGGTA	3.26
